{"sequences": {"note": "Amino acid sequences for entries named in this document (tags omitted). A change or cut given only in a name is not applied to a line headed by its entry. Chains listed by the source or under a name are the forms on record and can include a tag or linker.", "UniProt P63017": "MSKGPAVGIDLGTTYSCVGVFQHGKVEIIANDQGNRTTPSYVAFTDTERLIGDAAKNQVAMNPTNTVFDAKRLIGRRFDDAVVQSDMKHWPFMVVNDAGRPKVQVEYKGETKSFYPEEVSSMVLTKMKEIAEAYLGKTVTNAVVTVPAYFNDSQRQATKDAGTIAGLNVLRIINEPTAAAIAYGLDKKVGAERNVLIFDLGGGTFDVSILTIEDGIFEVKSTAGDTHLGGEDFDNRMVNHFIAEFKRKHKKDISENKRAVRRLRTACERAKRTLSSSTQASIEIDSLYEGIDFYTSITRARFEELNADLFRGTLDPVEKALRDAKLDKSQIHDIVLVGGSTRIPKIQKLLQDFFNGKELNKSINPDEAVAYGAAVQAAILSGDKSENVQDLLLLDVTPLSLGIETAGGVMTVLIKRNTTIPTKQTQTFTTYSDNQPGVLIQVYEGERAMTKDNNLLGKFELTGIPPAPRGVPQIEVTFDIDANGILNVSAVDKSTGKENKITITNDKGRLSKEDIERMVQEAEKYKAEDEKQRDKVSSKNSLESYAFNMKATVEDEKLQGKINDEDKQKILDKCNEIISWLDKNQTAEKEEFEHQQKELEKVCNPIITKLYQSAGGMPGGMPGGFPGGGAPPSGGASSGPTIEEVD", "nucleotide-binding domain mutant of pCAG-STREP-HSPA8 (deletion of 2–386 amino acids) (P63017, form named)": "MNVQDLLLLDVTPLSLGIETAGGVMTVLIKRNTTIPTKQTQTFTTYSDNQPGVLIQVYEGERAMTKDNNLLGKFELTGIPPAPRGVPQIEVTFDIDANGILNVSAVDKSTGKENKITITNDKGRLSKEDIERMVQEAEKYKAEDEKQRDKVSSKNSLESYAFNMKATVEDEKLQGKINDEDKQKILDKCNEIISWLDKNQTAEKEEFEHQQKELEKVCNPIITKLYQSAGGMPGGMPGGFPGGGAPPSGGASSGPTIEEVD", "UniProt P11142": "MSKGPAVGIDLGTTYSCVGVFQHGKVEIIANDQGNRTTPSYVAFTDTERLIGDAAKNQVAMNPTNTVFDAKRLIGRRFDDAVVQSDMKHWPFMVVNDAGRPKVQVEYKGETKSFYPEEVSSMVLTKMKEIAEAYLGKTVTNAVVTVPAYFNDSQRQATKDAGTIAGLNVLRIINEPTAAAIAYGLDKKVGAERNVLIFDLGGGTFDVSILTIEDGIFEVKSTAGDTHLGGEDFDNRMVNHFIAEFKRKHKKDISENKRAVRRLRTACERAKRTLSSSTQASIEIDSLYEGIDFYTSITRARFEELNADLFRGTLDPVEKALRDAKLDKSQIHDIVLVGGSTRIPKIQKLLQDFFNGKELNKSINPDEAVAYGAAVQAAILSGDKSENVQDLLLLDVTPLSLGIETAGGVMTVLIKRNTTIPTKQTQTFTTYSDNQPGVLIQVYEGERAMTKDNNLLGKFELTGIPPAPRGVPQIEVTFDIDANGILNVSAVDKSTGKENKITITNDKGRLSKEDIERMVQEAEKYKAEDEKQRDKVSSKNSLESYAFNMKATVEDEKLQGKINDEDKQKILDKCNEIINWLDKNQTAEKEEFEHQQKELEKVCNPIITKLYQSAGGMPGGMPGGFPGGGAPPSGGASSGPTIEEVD"}, "source": "paper PMC11015022", "binders": {"B1": {"name": "FLAG-SPATA6 (protein, UniProt Q3U6K5 18-488)", "chain": "VTCPGVVLKDKEDIYLSICVFGQYKKTQCVPATFPLVFNARMVFEKVFPEAVDPGDVVAQLEYDTAVFELIQLVPPVGETLSTYDENTRDFMFPGPNQMSGHHDSNRQVTMRRISGLRGIAPKLEFSTTSVITECLISSRKCRTQDKFTYHSAPVEKSHGRLQCRTSRSQKKKSKSPERSKYCINTKNYEQPTISSKSHSPSPYTKRRMCELSEDTRRRLAHLNLGPYEFKKETDKPPFVIRHVDPPSPRTDNFFGSPGRDCERDGWVRMHSDHPHIGCCRSKDYKVIRSPHGRDFEDPFERCEEYLSPRTCSKPQHSARTLLVHSAPSTTPKHCASPVLNRASLRERFHSDWCSPPNCDEIHDRVKDVLKSHQAHARHLCDERDPEREDELELKRSLLYRDSAYDSDPEYSSFQRPRGSFHLDDGECWSNRAASCKGKSHRPVFENSMDKMYRNLYKKACSSVSHTQESF"}, "B2": {"name": "SPATA6 (pCAG-SPATA6, in HeLa cells) (protein, UniProt Q3U6K5 18-488)", "chain": "B1 chain"}, "B3": {"name": "SPATA6 (pCAG-SPATA6) (protein, UniProt Q3U6K5 18-488)", "chain": "B1 chain"}, "B4": {"name": "Spermatogenesis Associated 6 (SPATA6) (protein, UniProt Q3U6K5 18-488)", "chain": "B1 chain"}, "B5": {"name": "MYC-SUN5 (protein, UniProt Q9DA32 1-373)", "chain": "MPRTRNIGALCTLPEDTTHSGRPRRGVQRSYISRMAEPAPANMNDPLLLPLRMNTPGLSLVQILLGYMSWLTYLACFLRTQTQQVFLNTCRCKLFCQKVMEKMGLLVLCVFGFWMFSMHLPSKVEVWQDDSINGPLQSLRMYQEKVRHHTGEIQDLRGSMNQLIAKLQKMEAISDEQKMAQKIMKMIQGDYIEKPDFALKSIGASIDFEHTSATYNHDKARSYWNWIRLWNYAQPPDVILEPNVTPGNCWAFASDRGQVTIRLAQKVYLSNITLQHIPKTISLSGSPDTAPKDIVIYGLESLPREEVFLGAFQFQPENVIQMFQLQNLPPRSFAAVKVKISSNWGNPRFTCMYRVRVHGSVTPPKDSHLEPLS"}, "B6": {"name": "MYC-CENTLEIN (protein, UniProt A2AM05 1-1397)", "chain": "MAARSPSSSPPPPPVRRSSRRSLRVGRGAEVHAVRSEASGLAGAAREVVADKSDLLWRGEEGSGGRRGSGRAGAAVAPVASAPAGSWWPEGLSSEEAKATRSQLLEEELSSLKEELALCQADKEFVWSLWRRLQATNPDLTQTVSLVVEREKQKSEAKDRKVLEILQVKDSKIQELEQTESVLKQELHDLVKLKTLVDEENAFLRKELCDLQKKFKDKSQEVKDAKECVQSKEEQNRLVIKNLEEENERLRTRCTDLLNDLEKLRNQEAHWRKEKHSVDTRVKVLEENLIEAKKEIESAQTKYNVVSQQLNNKQAELLQKDMDITLIRKELQELQNVYKQNSAHTAQQADLIQQLQALNMDTQKVLRNQEDVHTAESMSYQKLYNELHMCFETTKSNEVMLRQSVVNLQGQLFQKEQENVKLKEKLEESQGTAPSLSPHDSDSSHSGKAPLSTLETLMISQKSEIEYLQKKLKVANEKLMANRSCDQDFSEKGTEGKHKEPPVKRSRSLSPKSSFMGSEELRKLKKAERKIENLEKTLQLKSQENDELRDAHEKRKERLQMLHTNYRAVKEQLKQWEEDSGMAESRQMKRAEPHQLRQEDSDAVWNELAYFKRENQELMVQKMTLQDELDELKMHMSIDKTTIQELNRCMAEKREEQLFRQHEDAEVKKSTPEKNEKAISEETLQKVIELENRLKSFEKNSRKLKEESKRLKKENDFLKSHLKHYQEDSEAREKELEQLLRVSKDVEHDKSELQTKITALETEVTTLRRQVTEAKALRGKDEEVVCPEERAHRPTDKAKSEMATTDVRARRCDCKTATTKVKFKAAKRKCSVGRHHTVLNHSIKVMSHVENLSKDGWEDVSEGSSDSETQTFQNLGTIIVETSQNISPIEDGRNQKEIDQTEGSCAQQRAMQTYSCEDIKAPQSISHNKNTKKMTFQKKSGSLQKSLHSALPARVNREKCKNLPAQKSSSSTISLRERIVSLQQQNSLLQNARRAAEASAKEYKEANEKLLHQQQVSDHRFQTSRQTIKKLTLDLAELRKEKEDLLKKVESSSDIMSLAEEVSRIMAPQIKVTTLGPSRSMDLEMKQLQCKLKNATNELTKQSSNVKSLRMELLAKDDHIKEMHERTSRMERDITMKRHLIEDLKFRQKVNSESNESFNEMLETLEKKVKSLTEECSNKKVSVDSLKQRLNVAVKEKSQYEQMYQKTKEELEKKDLKMSVLISKLNDTETAMAQIETAASEQLQGLALQSEQVLEGAQKKLLSANEKIEEFTVFVKALVNELQSDVHGTRHQIRELKKMQKSRHACKTSTHKAQTLAASILNISRSDLEEILDTEDELEIEKTKIDIENDKEWMLYIQKLLEGQLPFASYLLEAVLEKIKENKKLTEGYFTVMKDTK"}, "B7": {"name": "MYC-PMFBP1 (protein, UniProt Q9WVQ0 1-1022)", "chain": "MLKLKGELRTAKGLKNEAGERDRDVSNLNSKLLSLQLDIKNLHDVCKRQGKTLQENQLCVEEAMLKANHNKKQAQTLVFTDNQMDFRVNKQYHLRQLQQLKKKLLTLQQELEFRTQELQASYCSLLQYQSILEKQTSDLLVLHRHCKLKEDEVILYEEEMGNHSKSTGEKLHLAQEQLALAGDKILSLERSLNLYRDKYQTSLSNIELLECQVKMLEGELSGLIGQDPENKGDHPKVRIYTSPCVIQEHQETLKRLSEVWQKVSEQDDLIQELRNKLACSNSLVLEREEALIKLQAEFASYTATHRHPPTSSEDCEDITKILKHLQEQKDSQCLHVEEYQNLVKDLRMELEAVSEQKKKIMKDMMKLELDLHGLREETSCVIEKKDKETVFLQYRLQDLQQQYTESQKLSLKKDKLLQDKDERLHELEKNLMQVQNSLREKEAELEKLQCTTKELDTSLQEARQSTSKIDCEALRAEIQKLKDSLEEAREQLKVSDQNLTQSKEEAHLSASSLEDAHRKIENCLLQDKQKEEVIKDLQSQLHKLQKESSKIEEERKHNRQRLQELSSELSEGQRRLSNAEKEKSLLQKTLDEDEKKIDELFHSTQVSEQKQRELTNSIRKLEEELLEIKGLLEEKREQLKKSKEQEKALEEEIEALRQEAKRKEKMAKEHLRKLDEEKENLQAELTSRSSHLDSSLNKYNSSQKVIQELNAEIARQKDSIMILQTQLDSAIQKEKNCFQNMVSKEAYEELVRKSGNCQDDLTQALEKLTQATSETKSLNRSLQQTQERKAQLEDEIAAYEERMKKLNMELKKLQGFQQQSEQEVHNFDKKLEEMSNQVLQWQRQHQSDLKMLAAKESQLREFQEEMATLRESLLADEKEPYSPPAKLTPKETCRHHRENDQIMNNVEQWAKEQKIANEKLGNKLREQVKYIAKLTGEKDHLHNVMVHLQQENKKLKNEIEEKKLKAGNPRICVKAFPPNKLEPSQKGKLCCALGWRGIPQDLTPKTDHKYMGLPHSSGSSYC"}}, "key": {"[1]": {"target": "MYC-HSPA8 (mouse) (UniProt P63017)", "experiment": "co-IP; HEK293T cells co-transfected with FLAG- and MYC-tagged mouse constructs, lysate, Western blot"}, "[2]": {"target": "HSPA8 (in HeLa cells) (human (endogenous in HeLa)) (UniProt P11142)", "experiment": "condition: only in the absence of BAG5 (BAG5 KO HeLa cells); co-IP; HSPA8 IP from BAG5 KO HeLa cells co-transfected with pCAG-BAG5 (or pCAG) and pCAG-SPATA6, Western blot; IgG as negative control"}, "[3]": {"target": "HSPA8 (in HeLa cells) (human (endogenous in HeLa)) (UniProt P11142)", "experiment": "co-IP; HSPA8 IP from WT HeLa cells co-transfected with pCAG-BAG5 (or pCAG) and pCAG-SPATA6, Western blot; IgG as negative control"}, "[4]": {"target": "nucleotide-binding domain mutant of pCAG-STREP-HSPA8 (deletion of 2–386 amino acids) (mouse) (UniProt P63017)", "experiment": "co-IP; HEK293F cells co-transfected with a STREP-tagged bait (HSPA8, its NBD deletion, or BAG5) and the untagged partners from pCAG; lysate without added nucleotide (for STREP-BAG5 also with ATP: weakened)"}, "[5]": {"target": "STREP-HSPA8 (mouse) (UniProt P63017)", "experiment": "co-IP; HEK293F cells co-transfected with a STREP-tagged bait (HSPA8, its NBD deletion, or BAG5) and the untagged partners from pCAG; lysate without added nucleotide (for STREP-BAG5 also with ATP: weakened)"}, "[6]": {"target": "HSPA8 (heat shock cognate 70 kDa protein) (mouse (endogenous in mouse testis)) (UniProt P63017)", "experiment": "co-IP; endogenous proteins from WT mouse testis lysate (20 mM HEPES, 150 mM NaCl, 0.5% NP-40, 1 mM DTT, pH 7.3), protein A/G magnetic beads, Western blot; IgG as negative control; in Fig. 8B lysates also treated with ATP (HSPA8-SPATA6 binding reduced)"}, "[7]": {"target": "HSPA8 (heat shock cognate 70 kDa protein) (mouse (endogenous in mouse testis)) (UniProt P63017)", "experiment": "condition: only in the absence of BAG5 (Bag5 KO testes); co-IP; HSPA8 IP from Bag5 KO mouse testis lysate, Western blot; IgG as negative control"}, "[8]": {"target": "T1, FLAG-BAG5 (mouse) (UniProt Q8CI32)", "T1 sequence": "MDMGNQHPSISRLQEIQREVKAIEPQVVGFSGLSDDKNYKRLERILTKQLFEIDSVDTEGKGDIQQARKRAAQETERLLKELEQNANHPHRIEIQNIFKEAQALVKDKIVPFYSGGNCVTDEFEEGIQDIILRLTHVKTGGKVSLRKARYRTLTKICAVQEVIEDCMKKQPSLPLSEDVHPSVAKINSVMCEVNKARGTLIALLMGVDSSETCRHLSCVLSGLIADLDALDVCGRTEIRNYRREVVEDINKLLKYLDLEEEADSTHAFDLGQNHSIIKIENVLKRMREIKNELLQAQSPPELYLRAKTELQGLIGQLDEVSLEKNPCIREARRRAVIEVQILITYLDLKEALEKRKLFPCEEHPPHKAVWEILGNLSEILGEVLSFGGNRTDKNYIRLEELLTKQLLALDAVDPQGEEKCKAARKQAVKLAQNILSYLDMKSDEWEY", "experiment": "co-IP; HEK293T cells co-transfected with FLAG- and MYC-tagged mouse constructs, lysate, Western blot"}}, "note": "No constants are given. Whether binding was seen depends on the method and setting. In cells and extracts the contact can be indirect. Some entries that bind do so weakly or less than the wild type. For some of these results: Sequences can lack the tags named with a protein."}
{"binder": "B1", "values": [{"measurement": "binding", "setting": "[1]", "result": "binds"}]}
{"binder": "B2", "values": [{"measurement": "binding", "setting": "[2]", "result": "no binding"}, {"measurement": "binding", "setting": "[3]", "result": "binds"}]}
{"binder": "B3", "values": [{"measurement": "binding", "setting": "[4]", "result": "binds"}, {"measurement": "binding", "setting": "[5]", "result": "binds"}]}
{"binder": "B4", "values": [{"measurement": "binding", "setting": "[6]", "result": "binds"}, {"measurement": "binding", "setting": "[7]", "result": "no binding"}]}
{"binder": "B5", "values": [{"measurement": "binding", "setting": "[8]", "result": "no binding"}]}
{"binder": "B6", "values": [{"measurement": "binding", "setting": "[8]", "result": "no binding"}]}
{"binder": "B7", "values": [{"measurement": "binding", "setting": "[8]", "result": "no binding"}]}
